Laboratory results from PubChem BioAssay AID1030 (National Center for Advancing Translational Sciences (NCATS), 2008).
Screen size: about 220,000 compounds; about 16,000 (7.3%) were called active. The inconclusive results got no clear call from the source; some entries with a clear call stand among them for comparison. Calls follow the shape of the dose curve; as a rule, active = well fitted inhibition curve with a large enough effect (not every such curve was filed as active); inconclusive = small, poorly fitted or top-dose-only effect, or another doubt; inactive = no such curve, though single readings can be large or run the other way. No potency is given beside an inconclusive call; the fits are too rough.

Target: Aldehyde dehydrogenase 1A1 (Homo sapiens) (UniProt P00352)
Test: qHTS Assay for Inhibitors of Aldehyde Dehydrogenase 1 (ALDH1A1);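 as to activity, negative = inhibition: plate controls were no enzyme wells and a reference inhibitor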
Conditions: Purified ALDH1A1, NADH fluorescence, propionaldehyde substrate; series mostly up to 75.3 µM; activity, negative = inhibition: at the top concentration
Potency is read from the fitted curve at half-maximal effect; tags tell the direction and shape of the fitted curve.

Chain of UniProt P00352 (P00352 whole entry, looked up): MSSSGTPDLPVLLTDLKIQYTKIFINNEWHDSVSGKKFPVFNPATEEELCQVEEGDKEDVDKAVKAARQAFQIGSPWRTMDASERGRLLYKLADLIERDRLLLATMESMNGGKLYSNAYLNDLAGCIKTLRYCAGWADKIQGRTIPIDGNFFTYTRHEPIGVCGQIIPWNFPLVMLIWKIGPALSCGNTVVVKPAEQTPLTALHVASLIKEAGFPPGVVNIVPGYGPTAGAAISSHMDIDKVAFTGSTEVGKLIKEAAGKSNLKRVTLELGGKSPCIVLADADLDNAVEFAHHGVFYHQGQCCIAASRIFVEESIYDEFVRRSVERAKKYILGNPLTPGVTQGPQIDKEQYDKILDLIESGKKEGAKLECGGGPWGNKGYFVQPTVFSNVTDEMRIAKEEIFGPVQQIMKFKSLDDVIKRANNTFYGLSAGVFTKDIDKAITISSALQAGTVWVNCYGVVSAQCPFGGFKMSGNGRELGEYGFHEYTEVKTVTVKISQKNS

SMILES | Potency | activity, negative = inhibition
COCCn1nnnc1CN(Cc1ccco1)Cc1cc2cc3c(cc2[nH]c1=O)OCO3 | inconclusive [inhibitor, single point] | –
CCC(Sc1nc2ccccc2c2nc3ccccc3n12)C(=O)NCc1ccco1 (configuration not stated) | – | inactive: 3.72%
O=C(CNCC1CCCO1)Nc1ccccc1N1CCOCC1 (configuration not stated) | inconclusive [inhibitor, single point] | –
O=C1C2C3C=CC(C3)C2C(=O)N1c1nccs1 (configuration not stated) | – | inactive: 5.05%
Cc1cnc(NC(=O)CCN2C(=O)C3CCCCC3C2=O)s1 (configuration not stated) | inconclusive [inhibitor, partial curve] | –
CCOC(=O)C1=NN(c2ccc(C)cc2)CC1C(=O)OC (configuration not stated) | inconclusive [inhibitor, single point] | –
COc1ccc(NS(=O)(=O)c2ccc(NC(=S)NC(=O)CC(C)C)cc2)cc1 | active: 12.6 µM | –
Brc1ccc(-c2cnco2)cc1 | – | inactive: 2.74%
CCOc1cc(/C=N/NC(=O)c2cccnc2)ccc1OC(=O)c1ccco1 | – | inactive: 13.6%
COc1ccc(OCC(O)Cn2c(Br)nc3c2c(=O)[nH]c(=O)n3C)cc1 (configuration not stated) | – | inactive: 9.5%
CC1=C(C(=O)OCc2ccc3c(c2)OCO3)C(c2ccccc2)NC(=O)N1 (configuration not stated) | inconclusive [inhibitor, single point] | –
O=C(c1ccccc1Cl)N1CCc2ccccc2C1 | inconclusive [inhibitor, single point] | –
CCC(C)(C)N1CC(=O)N(Cc2ccccc2)C(c2ccc(OC)cc2)C1=O (configuration not stated) | inconclusive [inhibitor, single point] | –
CCNC(=S)NNC(=O)c1ccc(=O)n(Cc2ccccc2)c1 | inconclusive [inhibitor, single point] | –
c1ccc(-n2nnnc2SCCCSc2nc3ccccc3s2)cc1 | active: 1.26 µM | –
O=C1C=C(c2ccccc2)C(=O)N1Nc1ccccc1 | active: 22.4 µM | –
COC(=O)c1ccc(N/C=C\C(=O)c2ccc3c(c2)OCO3)cc1 | – | inactive: -4.55%
CCOC(=O)c1c(/N=C/c2ccc(O)cc2O)sc2c1CCC2 | inconclusive [inhibitor, single point] | –
CCOC(=O)CSc1ccc2nnc(-c3ccncc3)n2n1 | inconclusive [inhibitor, single point] | –
NNC(=O)CCC(=O)Nc1ccccc1 | – | inactive: 11.8%
COc1ccccc1-c1noc(-c2ccccc2C(=O)Nc2cccnc2)n1 | inconclusive [inhibitor, single point] | –
CCc1c(C(=O)N/N=C/c2ccc(C)o2)csc1C | inconclusive [inhibitor, partial curve] | –
COc1ccc(S(=O)(=O)N2CCCN(CC(=O)C(C)(C)C)CC2)cc1 | active: 20 µM | –
CC1CC2C3CCC4=CC(=O)C=C[C@@]4(C)[C@]3(F)C(O)C[C@]2(C)[C@]1(O)C(=O)COP(=O)(O)O (some centres not stated) | – | inactive: 1.74%

SMILES | Potency | activity, negative = inhibition
CS(=O)(=O)N1CCC2(CC1)CN(c1ccc(-c3ccccc3)cc1)C2 | – | inactive: 12%
O=C(c1cc2sccc2n1Cc1ccccc1)N1CCN(c2nc3ccccc3s2)CC1 | inconclusive [inhibitor, single point] | –
Cc1cc(Sc2nc(NC(C)C)nc(NC(C)C)n2)nc(Cl)n1 | inconclusive [inhibitor, single point] | –
CCOC(=O)c1c(C)oc2c1c(C=NCCC(=O)O)c(O)c1ccccc12 | inconclusive [inhibitor, single point] | –
COC(=O)c1cccc(C#CC(NP(=O)(c2ccccc2)c2ccccc2)c2ccccc2)c1 (configuration not stated) | active: 12.6 µM | –
CN1C(=O)/C(=N/OC(=O)c2ccccc2)c2ccccc21 | inconclusive [inhibitor, partial curve] | –
Nn1c(Cc2cccc3ccccc23)nnc1SCc1ccc(Cl)c(Cl)c1 | inconclusive [inhibitor, single point] | –
O=C(Nc1ccc([N+](=O)[O-])cc1)Nc1nc(-c2ccc(Cl)s2)cs1 | inconclusive [inhibitor, single point] | –
O=C(CNC(=O)C1COc2ccccc2O1)N/N=C/c1ccc(O)cc1O (configuration not stated) | inconclusive [inhibitor, single point] | –
CCOc1cc(C=O)ccc1OCC(N)=O | active: 11.2 µM | –
COc1cc(NS(=O)(=O)c2ccc(NC(=S)NC(=O)/C=C/c3ccc(OC)c(OC)c3)cc2)ncn1 | inconclusive [inhibitor, single point] | –
C/C=C/c1ccc(OCCCCN2CC(C)CC(C)C2)c(OC)c1 (configuration not stated) | inconclusive [inhibitor, single point] | –
OC(COc1ccc2c(c1)CCC2)Cn1cnc2ccccc21 (configuration not stated) | inconclusive [inhibitor, single point] | –
CC(=NCCc1ccccc1)C1=C(O)C(c2ccccc2)OC1=O (configuration not stated) | inconclusive [inhibitor, single point] | –
CC(C)=CCC/C(C)=C/CO/N=C1/C[C@@H](O)[C@@H](O)[C@@H]2[C@@H]3C(=O)N([C@@H](C)c4ccccc4)C(=O)[C@H]3CC[C@@H]12 | – | inactive: -5.47% [at 13.5 µM]
COC(=O)c1ccc2c(c1)NC1=C(C(=O)CC(C)(C)C1)C(c1ccncc1)N2 (configuration not stated) | inconclusive [inhibitor, partial curve] | –
CCOC(=O)C(C)Oc1ccc(OCc2ccccc2)cc1 (configuration not stated) | – | inactive: 0.462%
CC(=O)CSc1ncnc2sc3c(c12)CCC3 | inconclusive [inhibitor, single point] | –
Cc1sc2ncnc(Sc3nc4ccccc4s3)c2c1C | inconclusive [inhibitor, single point] | –
O=C(C1=C[C@H](C2CCCCC2)C[C@H](OCCCCO)O1)N1CCOCC1 | inconclusive [inhibitor, single point] | –
COc1ccc(S(=O)(=O)NCc2csc(C)n2)cc1 | – | inactive: 6.57%
c1cc(Nc2cccc3nccnc23)c2nccnc2c1 | inconclusive [inhibitor, single point] | –
Cc1cc(C)c2c(N)c(S(=O)(=O)c3ccccc3)sc2n1 | inconclusive [inhibitor, partial curve] | –
